# Source: article PMC4336329 (PLoS ONE, 2015)
# Out of some 310,000 compounds screened, about 14,000 (4.5%) showed an effect of 50% or more. Effects have a minus sign here. Some of the results follow.
# Target: human ether-à-go-go-related gene (hERG) potassium channel (human, UniProt Q12809)
# Assay: primary screen, population patch clamp on CHO cells stably expressing hERG
# 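Further: peak tail current of the secondary pulse compared with the same well before compound.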
# Sequence of human ether-à-go-go-related gene (hERG) potassium channel (Q12809 whole entry, looked up): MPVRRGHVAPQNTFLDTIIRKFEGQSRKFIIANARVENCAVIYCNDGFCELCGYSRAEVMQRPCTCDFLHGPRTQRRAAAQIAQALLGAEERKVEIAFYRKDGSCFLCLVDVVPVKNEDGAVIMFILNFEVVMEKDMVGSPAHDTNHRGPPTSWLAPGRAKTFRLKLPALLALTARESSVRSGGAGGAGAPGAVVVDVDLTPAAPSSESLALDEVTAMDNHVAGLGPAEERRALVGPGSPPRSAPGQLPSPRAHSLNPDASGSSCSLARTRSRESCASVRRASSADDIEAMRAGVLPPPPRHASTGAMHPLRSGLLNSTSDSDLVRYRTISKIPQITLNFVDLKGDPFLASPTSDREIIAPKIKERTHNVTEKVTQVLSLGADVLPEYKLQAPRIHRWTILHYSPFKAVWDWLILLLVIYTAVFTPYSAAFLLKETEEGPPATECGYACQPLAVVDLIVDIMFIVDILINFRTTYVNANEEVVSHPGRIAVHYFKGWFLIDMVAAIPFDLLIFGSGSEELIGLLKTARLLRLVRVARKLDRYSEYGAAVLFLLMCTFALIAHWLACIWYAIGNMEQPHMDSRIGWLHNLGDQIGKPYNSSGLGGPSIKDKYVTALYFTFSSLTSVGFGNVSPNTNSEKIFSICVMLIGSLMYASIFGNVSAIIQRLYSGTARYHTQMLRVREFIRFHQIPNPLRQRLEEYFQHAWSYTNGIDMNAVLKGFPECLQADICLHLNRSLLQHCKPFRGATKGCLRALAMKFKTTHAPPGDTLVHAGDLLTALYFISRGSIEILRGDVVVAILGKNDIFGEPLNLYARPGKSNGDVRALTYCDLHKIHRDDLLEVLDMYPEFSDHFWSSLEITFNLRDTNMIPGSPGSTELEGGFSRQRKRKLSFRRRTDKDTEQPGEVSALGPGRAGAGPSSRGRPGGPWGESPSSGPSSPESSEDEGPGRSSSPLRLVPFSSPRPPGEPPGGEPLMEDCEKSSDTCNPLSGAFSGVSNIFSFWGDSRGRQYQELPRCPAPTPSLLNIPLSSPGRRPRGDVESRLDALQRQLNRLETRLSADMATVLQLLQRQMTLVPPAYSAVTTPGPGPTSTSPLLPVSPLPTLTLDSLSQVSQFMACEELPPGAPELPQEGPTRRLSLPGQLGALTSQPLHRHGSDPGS
row,Compound,"hERG current change (%, negative = inhibition) at 10uM [%]"
1,Cc1ccc(OCC(=O)Nc2cc(S(=O)(=O)N3CCOCC3)ccc2Cl)c([N+](=O)[O-])n1,-19.2
2,CCn1c(SCC(=O)Nc2ccc(N3CCOCC3)c(Cl)c2)nnc1-c1ccc(N)cc1,0.885
3,CC1Cc2ccccc2N1CC(=O)Nc1ccc(N2CCOCC2)cc1 (stereo not drawn),-13.5
4,CCN(CC)CCNC(=O)c1ccc2c(c1)ncn2C1CCCCC1,-7.07
5,CCSC1(SCC)N=C(N)C2(C#N)C(c3ccc(OC)c(OC)c3OC)C12C#N (stereo not drawn),-22.3
6,CC(=O)c1c(C)c[nH]c1C,19.5
7,O=C(COc1ccc(F)cc1Cl)Nc1cc(S(=O)(=O)N2CCOCC2)ccc1N1CCCCC1,4.24
8,Cc1ccc(C(=O)C2CCN(S(=O)(=O)c3c(C)noc3C)CC2)cc1,-67.3
9,c1ccc(-c2nnc3sc(Cc4cccs4)nn23)cc1,-30.8
10,COc1cc(NC(=O)Nc2ccccc2)c(OC)cc1NC(=O)CN1CCCCC1,-32.1
11,CCCCN(CCCC)S(=O)(=O)c1ccc(SCC(=O)OCC)c([N+](=O)[O-])c1,3.61
12,CCOc1ccc(OCCn2nnc3ccccc3c2=O)cc1,17.9
13,CCCCOc1ccc(S(=O)(=O)NNC(=O)C2Cc3c(ccc4ccccc34)O2)cc1 (stereo not drawn),9.49
14,COc1ccccc1CN1CCNC(=O)C1CC(=O)O (stereo not drawn),7.68
15,COC(=O)Cc1cc(=O)n(-c2ccccc2)[nH]1,-0.509
16,CCc1nc2ccc(C(=O)N(C)CC(=O)Nc3cccc(F)c3)cc2nc1CC,-10.5
17,Cc1ccc(-c2nnn(CC(=O)NCC3CC3)n2)o1,12.8
18,CCOc1ccc(C(=O)OCC(=O)Nc2ccc(SC(F)F)cc2)cc1OCC,3.55
19,CCn1c(=N)n(CCO)c2ccccc21.Cl,5.84
20,CCS(=O)(=O)N1CCN(C(=O)c2cccnc2)CC1,-6.19
21,COc1ccc(-c2cc(=O)oc3cc(OCC(=O)NCc4ccccn4)ccc23)cc1,-6.52
22,Cc1nc(Cl)sc1C(=O)Nc1ccc2ccccc2c1,8.55
23,Cc1ccc(Cl)cc1NC(=S)N/N=C/c1cccc2ccccc12,11.9

row,Compound,"hERG current change (%, negative = inhibition) at 10uM [%]"
1,Cc1sc2ncnc(N3CCC(C(=O)NCC(=O)Nc4ccc(F)c(F)c4)CC3)c2c1C,-67.2
2,COc1ccc(/C=C2\SC(=O)N(CC(=O)N(C)C3CCS(=O)(=O)C3)C2=O)cc1 (stereo not drawn),-1.39
3,O=[n+]1c2c(n([O-])c3ccccc31)CCC2,6.51
4,CN(c1nc2ccccc2[nH]c1=O)C1CCCCC1,1.68
5,O=C(Nc1ccc([N+](=O)[O-])cc1)c1cccc(S(=O)(=O)Nc2cccnc2)c1,5.16
6,COc1ccc(C2C(C(=O)c3ccco3)=C(O)C(=O)N2CC2CCCO2)c(OC)c1 (stereo not drawn),1.24
7,CCCCn1c(N)c(N(CC(C)C)C(=O)C2CCN(S(=O)(=O)c3ccccc3)CC2)c(=O)[nH]c1=O,-1.01
8,FC(F)Sc1ccc(-n2c(-c3ccc(Cl)cc3)c[n+]3c2CCC3)cc1.[Br-],-92.6
9,CCOC(=O)N1CCN(C(=O)CN(c2ccccc2OC)S(=O)(=O)c2ccc(C)cc2)CC1,-20.4
10,Cc1ccc2[nH]c(=O)c(-c3noc(C(C)C)n3)cc2c1,-16
11,Cc1ccc(NC(=O)CCNC(=O)Nc2ccccc2)cc1S(=O)(=O)N(C)C,1.05
12,Cc1ccc(-n2c(C(C)n3nc(C)c([N+](=O)[O-])c3C)n[nH]c2=S)cc1 (stereo not drawn),11.3
13,COc1cc(C2c3c(oc4ccccc4c3=O)C(=O)N2CCN2CCOCC2)cc(OC)c1OC (stereo not drawn),-4.12
14,C/C(Cn1nnc([N+](=O)[O-])n1)=N\NC(=O)c1ccccc1,3.37
15,CC1=C(C(=O)Nc2ccccc2C(=O)NCCCN2CCN(C)CC2)SCCO1,9.05
16,O=C(COC(=O)c1nc(Cl)ccc1Cl)NC1CCCCC1,12.2
17,COc1ccc(CCNC(=O)Cn2nnc(-c3ccccc3F)n2)cc1OC,1.44
18,CC(=O)NC(Cc1cc(C)ccc1C)C(=O)N1CCN(C(=O)Nc2ccc(C(C)=O)cc2)CC1 (stereo not drawn),-4.23
19,O=[N+]([O-])c1cccc(-c2ccc(SCc3cccnc3)nn2)c1,-55
20,CC1CC(C)CN(CCCNC(=O)Cn2ncc3c(=O)oc4ccccc4c32)C1 (stereo not drawn),-43.1
21,O=C(Nc1ccc([N+](=O)[O-])cc1)N1CCCCC1,-1.34
22,COc1ccc(N(CC(=O)NCCSCc2ccc(Cl)cc2)S(C)(=O)=O)cc1Cl,6.61
23,CCOC(=O)c1c(NC(C)=O)sc2c1CCCNC2=O,0.342

row,Compound,"hERG current change (%, negative = inhibition) at 10uM [%]"
1,CCN(CC)CCCNc1oc(-c2cccc(Cl)c2)nc1C#N,-37.6
2,Cc1c(CN2CCN(c3cccc(C(F)(F)F)c3)CC2)c(=O)n(-c2ccccc2)n1C,-39.7
3,Cc1ccc(NC(=O)CSc2n[nH]c(-c3ccco3)n2)cc1,-5.79
4,Nc1ccc(-c2nnn(Cc3ccccc3F)n2)cc1,-9.3
5,CN1CCN(c2nc(N3CCN(c4ccccc4)CC3)ncc2F)CC1,-21.1
6,NC(=O)c1ccc(Oc2ccc(C(N)=O)cc2)cc1,17.5
7,O=S(=O)(c1ccc(F)c(Cl)c1)N1CCCC1,10.4
8,O=C(Nc1ccc(F)c(F)c1)c1ccccc1-c1ccccc1,-6.3
9,CCOC(=O)C1=C(COC(=O)c2ccc(Cl)cc2[N+](=O)[O-])NC(=O)NC1C (stereo not drawn),9.55
10,O=C(NCc1ccco1)c1ccc(-c2csnn2)cc1,2.22
11,Cc1cccc(-c2noc(CSc3ccccc3)n2)c1,3.2
12,CCCNC(=S)NNC(=O)c1cc(C2CC2)nc2ccccc12,23.4
13,CCCOc1ccc(C(=O)NC(=S)NCc2cccnc2)cc1,-27.7
14,CCCCCC1CC(CC(=O)O)C(=O)O1 (stereo not drawn),1.43
15,Cc1ncc(CSc2nc3ccccc3[nH]2)c(N)n1,-4.81
16,Cc1cc(C(=O)CN2CCC(C)CC2)c(C)n1-c1ccccc1F,-5.74
17,Cc1ccccc1OCCC(=O)N1CCN(S(=O)(=O)c2ccccc2F)CC1,9.81
18,CCOC(=O)C(=O)N/N=C/c1cccc(Br)c1,-10.5
19,Cc1nnc(SCc2ccc(C(=O)Nc3cc(Cl)ccc3C)cc2)s1,-23.7
20,CCOC(=O)c1cc(C(C)=O)c(=O)n(C)c1N,16.7
21,CCN(CC)C1=N/C(=C\c2ccco2)C(=O)N1c1ccccc1,-6.68
22,CCCc1nnc(SCC(=O)N2CCCC(C)C2)n1CC1CCCO1 (stereo not drawn),14.1
23,Cc1cccc(NP(=O)(Oc2ccccc2)Oc2ccccc2)c1C,-16.9

row,Compound,"hERG current change (%, negative = inhibition) at 10uM [%]"
1,Cc1nc(NC(=O)c2cc3c(C)nn(-c4ccccc4)c3s2)sc1C(=O)Nc1ccccc1,12.3
2,COc1cc(C(=O)N(Cc2ccccn2)CC2CCCO2)cc(OC)c1OC.Cl (stereo not drawn),-11.1
3,Cc1ccc(C(=O)OCC(=O)N2CCc3ccccc32)cc1,14.7
4,c1ccc(OCCOCCSc2ncccn2)cc1,1.32
5,O=C(NCCN1C(=O)S/C(=C\c2ccc(F)cc2)C1=O)c1cccc(S(=O)(=O)N2CCOCC2)c1,-3.04
6,CO/N=C/CC(=O)c1cnc(-c2ccccc2)s1,9.2
7,Cc1nc2ncnn2c(C)c1CCC(=O)Oc1ccccc1,-5.02
8,CNC(=O)COC(=O)/C=C/c1cccs1,13.6
9,CCN(CCn1cccn1)C(=O)c1cc(COc2c(F)cccc2F)on1,0.76
10,CC(C)c1ccc(/C=N/NC(=O)c2cccc(S(=O)(=O)N3CCOCC3)c2)cc1,10.1
11,Cc1ccc(N=C2NC(=O)c3cccc([N+](=O)[O-])c32)cc1,-16.9
12,CCCC(CCC(=O)Nc1ccn(-c2ccccc2)n1)C(=O)O (stereo not drawn),4.5
13,COc1ccc(-n2nc3c(c2NC(=O)c2cc4ccccc4o2)CS(=O)(=O)C3)cc1,-12.4
14,O=C(/C=C/c1cccs1)c1cc(Br)ccc1OC(=O)N1CCOCC1,-38
15,CCOC(=O)/C(C#N)=C1/C=C(C)NC(c2ccccc2O)=N1,11.7
16,Cc1cc(C)nc(NS(=O)(=O)c2ccc(N/C=C/C(=O)c3ccc(Cl)cc3)cc2)n1,-7.81
17,Cc1csc(NC(=O)C2CSC3(C)CCC(=O)N23)n1 (stereo not drawn),2.32
18,COc1cc(C(=S)N2CCOCC2)ccc1OC(=O)c1ccc(Br)cc1,12.7
19,CC(=O)Nc1cccc(NS(=O)(=O)c2cn(C)c(=O)n(C)c2=O)c1,-8.88
20,CCOc1ccccc1NC(=O)C(=O)N/N=C/c1ccc([N+](=O)[O-])cc1,-13.2
21,COc1ccc(NC(=O)CN(C)C(=O)CN2C(=O)c3ccc([N+](=O)[O-])cc3C2=O)cc1,3.33
